Results reported in publication PMC9911399, “Two distinct binding modes provide the RNA-binding protein RbFox with extraordinary sequence specificity”.
Positions count from the first letter of the chain named. Some of the results follow.

T1: RBFOX1 RRM RbFoxmut (Fox-RRM*) (Homo sapiens, UniProt Q9NWB1 109-208, R118D;E147R;N151S;E152T)
T1 sequence: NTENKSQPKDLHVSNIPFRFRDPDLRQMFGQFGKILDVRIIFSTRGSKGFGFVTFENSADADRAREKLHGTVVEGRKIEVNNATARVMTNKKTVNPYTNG

B1: CUGAGAU (DNA:RNA)
RNA: GGGAGACCGGAAUUCAGAUUGUCCCUGAGAUUUAAAUCCCGUCGUAGCCACCA
DNA 1: CAATCTGAATTCCGGTCTCCC
DNA 2: TGGTGGCTACGACGGGATT
B2: GAGGGGG (DNA:RNA)
RNA: B1 RNA with C25G, U26A, A28G, A30G, U31G
DNA 1: CAATCTGAATTCCGGTCTCCC
DNA 2: TGGTGGCTACGACGGGATT
B3: CAGCAGA (DNA:RNA)
RNA: B1 RNA with U26A, A28C, G29A, A30G, U31A
DNA 1: CAATCTGAATTCCGGTCTCCC
DNA 2: TGGTGGCTACGACGGGATT
B4: UUUUACA (DNA:RNA)
RNA: B1 RNA with C25U, G27U, A28U, G29A, A30C, U31A
DNA 1: CAATCTGAATTCCGGTCTCCC
DNA 2: TGGTGGCTACGACGGGATT
B5: CCGGCUG (DNA:RNA)
RNA: B1 RNA with U26C, A28G, G29C, A30U, U31G
DNA 1: CAATCTGAATTCCGGTCTCCC
DNA 2: TGGTGGCTACGACGGGATT
B6: CCCAAAG (DNA:RNA)
RNA: B1 RNA with U26C, G27C, G29A, U31G
DNA 1: CAATCTGAATTCCGGTCTCCC
DNA 2: TGGTGGCTACGACGGGATT
B7: UCGAUUG (DNA:RNA)
RNA: B1 RNA with C25U, U26C, G29U, A30U, U31G
DNA 1: CAATCTGAATTCCGGTCTCCC
DNA 2: TGGTGGCTACGACGGGATT
B8: UACGAAU (DNA:RNA)
RNA: B1 RNA with C25U, U26A, G27C, A28G, G29A
DNA 1: CAATCTGAATTCCGGTCTCCC
DNA 2: TGGTGGCTACGACGGGATT
B9: CUUCUCC (DNA:RNA)
RNA: B1 RNA with G27U, A28C, G29U, A30C, U31C
DNA 1: CAATCTGAATTCCGGTCTCCC
DNA 2: TGGTGGCTACGACGGGATT

What follows are binders tested against T1, RBFOX1 RRM RbFoxmut (Fox-RRM*) (assay: EMSA; HiTS-Eq, 1 nM pool, 10 min; buffer printed only for the single-RNA assays: 10 mM Tris pH 7.5, 150 mM NaCl, 3.4 mM EDTA, 0.001% NP-40, 30 C). Details: tags: His6 N-terminal (pET28a); label: 5' 32P.
Procedure, shortened: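 Purified RbFox RRM (wild type or mutant) was equilibrated for 10 min in 50 µL with 1 nM of a 5′-radiolabelled pool of RNA with 7 randomized nucleotides, its flanks annealed to DNA oligonucleotides, across increasing protein concentrations. Free RNA was separated by 8% native PAGE, excised, reverse-transcribed, PCR-barcoded and sequenced on an Illumina HiSeq 2500. Relative association constants came from read-count changes of each variant against the control reaction, normalised to the cognate motif.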

Binder | binding signal
B1 | 0.0744 KA relative to UGCAUGU
B2 | 0.0771 KA relative to UGCAUGU
B3 | 0.115 KA relative to UGCAUGU
B4 | 0.103 KA relative to UGCAUGU
B5 | 0.153 KA relative to UGCAUGU
B6 | 0.106 KA relative to UGCAUGU
B7 | 0.239 KA relative to UGCAUGU
B8 | 0.0952 KA relative to UGCAUGU
B9 | 0.0662 KA relative to UGCAUGU
